Source: the supplement of paper PMC8728848
The other results are listed elsewhere or left out.

What was measured:
Test in all cases: glycan array binding signal (z-score within array); higher = stronger binding
Settings in all cases: glycan notation: IUPAC condensed, linker removed
Gal(a1-6)Glc = target: Gal(a1-6)Glc
Method in brief: (§1)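 From the Consortium for Functional Glycomics database, 3228 arrays were curated, keeping only those whose protein sequence was available. Binding is given as a within-array Z-score averaged across arrays sharing a protein sequence and across linkers. Negative Z-scores can be read as non-binding.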

Gal(b1-2)Gal = target: Gal(b1-2)Gal
Method in brief: as §1

Gal(b1-3)Gal = target: Gal(b1-3)Gal
Method in brief: as §1

Gal(b1-3)Gal(b1-4)GlcNAc = target: Gal(b1-3)Gal(b1-4)GlcNAc
Method in brief: as §1

Gal(b1-3)GalNAc = target: Gal(b1-3)GalNAc
Method in brief: as §1

[1] = target: Gal(b1-3)GalNAc(a1-3)[Fuc(a1-2)]Gal(b1-4)Glc
Method in brief: as §1

[2] = target: Gal(b1-3)GalNAc(a1-3)[Fuc(a1-2)]Gal(b1-4)GlcNAc
Method in brief: as §1

Gal(b1-3)GalNAc(b1-3)Gal = target: Gal(b1-3)GalNAc(b1-3)Gal
Method in brief: as §1

[3] = target: Gal(b1-3)GalNAc(b1-3)Gal(a1-4)Gal(b1-4)Glc
Method in brief: as §1

[4] = target: Gal(b1-3)GalNAc(b1-4)Gal(b1-4)Glc
Method in brief: as §1

[5] = target: Gal(b1-3)GalNAc(b1-4)[Neu5Ac(a2-3)]Gal(b1-4)Glc
Method in brief: as §1

Gal(b1-3)GlcNAc = target: Gal(b1-3)GlcNAc
Method in brief: as §1

[6] = target: Gal(b1-3)GlcNAc(a1-3)Gal(b1-4)GlcNAc
Method in brief: as §1

[7] = target: Gal(b1-3)GlcNAc(a1-6)Gal(b1-4)GlcNAc
Method in brief: as §1

Gal(b1-3)GlcNAc(b1-2)Man = target: Gal(b1-3)GlcNAc(b1-2)Man
Method in brief: as §1

[8] = target: Gal(b1-3)GlcNAc(b1-2)Man(a1-3)[Gal(b1-3)GlcNAc(b1-2)Man(a1-6)]Man(b1-4)GlcNAc(b1-4)GlcNAc
Method in brief: as §1

[9] = target: Gal(b1-3)GlcNAc(b1-2)Man(a1-3)[Gal(b1-3)GlcNAc(b1-2)Man(a1-6)]Man(b1-4)GlcNAc(b1-4)[Fuc(a1-6)]GlcNAc
Method in brief: as §1

[10] = target: Gal(b1-3)GlcNAc(b1-2)Man(a1-3)[GlcNAc(b1-4)][Gal(b1-3)GlcNAc(b1-2)Man(a1-6)]Man(b1-4)GlcNAc(b1-4)GlcNAc
Method in brief: as §1

[11] = target: Gal(b1-3)GlcNAc(b1-2)[Gal(b1-3)GlcNAc(b1-6)]Man(a1-6)[Gal(b1-3)GlcNAc(b1-2)Man(a1-3)]Man(b1-4)GlcNAc(b1-4)GlcNAc
Method in brief: as §1

[12] = target: Gal(b1-3)GlcNAc(b1-3)Gal(b1-3)GlcNAc
Method in brief: as §1

[13] = target: Gal(b1-3)GlcNAc(b1-3)Gal(b1-4)Glc
Method in brief: as §1

[14] = target: Gal(b1-3)GlcNAc(b1-3)Gal(b1-4)GlcNAc
Method in brief: as §1

[15] = target: Gal(b1-3)GlcNAc(b1-3)Gal(b1-4)GlcNAc(b1-2)Man(a1-3)[Gal(b1-3)GlcNAc(b1-3)Gal(b1-4)GlcNAc(b1-2)Man(a1-6)]Man(b1-4)GlcNAc(b1-4)GlcNAc
Method in brief: as §1

[16] = target: Gal(b1-3)GlcNAc(b1-3)Gal(b1-4)GlcNAc(b1-2)[Gal(b1-3)GlcNAc(b1-3)Gal(b1-4)GlcNAc(b1-6)]Man(a1-6)[Gal(b1-3)GlcNAc(b1-3)Gal(b1-4)GlcNAc(b1-2)Man(a1-3)]Man(b1-4)GlcNAc(b1-4)[Fuc(a1-6)]GlcNAc
Method in brief: as §1

[17] = target: Gal(b1-3)GlcNAc(b1-3)Gal(b1-4)GlcNAc(b1-3)Gal(b1-4)GlcNAc(b1-2)[Gal(b1-3)GlcNAc(b1-3)Gal(b1-4)GlcNAc(b1-3)Gal(b1-4)GlcNAc(b1-6)]Man(a1-6)[Gal(b1-3)GlcNAc(b1-3)Gal(b1-4)GlcNAc(b1-3)Gal(b1-4)GlcNAc(b1-2)Man(a1-3)]Man(b1-4)GlcNAc(b1-4)[Fuc(a1-6)]GlcNAc
Method in brief: as §1

[18] = target: Gal(b1-3)GlcNAc(b1-3)Gal(b1-4)GlcNAc(b1-6)[Gal(b1-3)GlcNAc(b1-3)]Gal(b1-4)Glc
Method in brief: as §1

[19] = target: Gal(b1-3)GlcNAc(b1-3)Gal(b1-4)[Fuc(a1-3)]GlcNAc
Method in brief: as §1

[20] = target: Gal(b1-3)GlcNAc(b1-3)Gal(b1-4)[Fuc(a1-3)]GlcNAc(b1-6)[Gal(b1-3)GlcNAc(b1-3)]Gal(b1-4)Glc
Method in brief: as §1

[21] = target: Gal(b1-3)GlcNAc(b1-3)GalNAc
Method in brief: as §1

[22] = target: Gal(b1-3)GlcNAc(b1-6)Gal(b1-4)GlcNAc
Method in brief: as §1

[23] = target: Gal(b1-3)GlcNAc(b1-6)GalNAc
Method in brief: as §1

[24] = target: Gal(b1-3)GlcNAc(b1-6)[Gal(b1-3)]GalNAc
Method in brief: as §1

Gal(b1-3)GlcNAc6S = target: Gal(b1-3)GlcNAc6S
Method in brief: as §1

[25] = target: Gal(b1-3)[Fuc(a1-4)]GlcNAc
Method in brief: as §1

[26] = target: Gal(b1-3)[Fuc(a1-4)]GlcNAc(b1-2)Man
Method in brief: as §1

[27] = target: Gal(b1-3)[Fuc(a1-4)]GlcNAc(b1-2)Man(a1-3)[Gal(b1-3)[Fuc(a1-4)]GlcNAc(b1-2)Man(a1-6)]Man(b1-4)GlcNAc(b1-4)[Fuc(a1-6)]GlcNAc
Method in brief: as §1

[28] = target: Gal(b1-3)[Fuc(a1-4)]GlcNAc(b1-3)Gal(b1-3)[Fuc(a1-4)]GlcNAc
Method in brief: as §1

[29] = target: Gal(b1-3)[Fuc(a1-4)]GlcNAc(b1-3)Gal(b1-4)[Fuc(a1-3)]GlcNAc
Method in brief: as §1

[30] = target: Gal(b1-3)[Fuc(a1-4)]GlcNAc(b1-6)GalNAc
Method in brief: as §1

[31] = target: Gal(b1-3)[GlcNAc(b1-6)]GalNAc
Method in brief: as §1

[32] = target: Gal(b1-3)[Neu5Ac(a2-6)]GalNAc
Method in brief: as §1

[33] = target: Gal(b1-3)[Neu5Ac(a2-6)]GlcNAc(b1-4)Gal(b1-4)Glc
Method in brief: as §1

[34] = target: Gal(b1-3)[Neu5Ac(b2-6)]GalNAc
Method in brief: as §1

Gal(b1-4)Gal = target: Gal(b1-4)Gal
Method in brief: as §1

[35] = target: Gal(b1-4)GalNAc(a1-3)[Fuc(a1-2)]Gal(b1-4)GlcNAc
Method in brief: as §1

B1: CFEM-SCL (Saccharomyces cerevisiae), O13547 (protein)
chain: MRATTLLSSVVSLALLSKEVLATPPACLLACVAQVGKSSSTCDSLNQVTCYCEHENSAVKKCLDSICPNNDADAAYSAFKSSCSEQNASLGD
Gal(a1-6)Glc
  glycan array binding signal (z-score): 0.231
Gal(b1-2)Gal
  glycan array binding signal (z-score): 0.077
Gal(b1-3)Gal
  glycan array binding signal (z-score): 4.26
Gal(b1-3)Gal(b1-4)GlcNAc
  glycan array binding signal (z-score): 2.99
Gal(b1-3)GalNAc
  glycan array binding signal (z-score): 3.86
[1]
  glycan array binding signal (z-score): 0.646
[2]
  glycan array binding signal (z-score): 0.94
Gal(b1-3)GalNAc(b1-3)Gal
  glycan array binding signal (z-score): 14.5
[3]
  glycan array binding signal (z-score): 0.829
[4]
  glycan array binding signal (z-score): 11.1
[5]
  glycan array binding signal (z-score): 2.46
Gal(b1-3)GlcNAc
  glycan array binding signal (z-score): -0.07
[6]
  glycan array binding signal (z-score): 0.016
[7]
  glycan array binding signal (z-score): -0.167
Gal(b1-3)GlcNAc(b1-2)Man
  glycan array binding signal (z-score): 0.015
[8]
  glycan array binding signal (z-score): -0.269
[9]
  glycan array binding signal (z-score): -0.181
[10]
  glycan array binding signal (z-score): -0.154
[11]
  glycan array binding signal (z-score): -0.332
[12]
  glycan array binding signal (z-score): -0.213
[13]
  glycan array binding signal (z-score): -0.258
[14]
  glycan array binding signal (z-score): -0.203
[15]
  glycan array binding signal (z-score): -0.213
[16]
  glycan array binding signal (z-score): 0.013
[17]
  glycan array binding signal (z-score): 0.038
[18]
  glycan array binding signal (z-score): 0.032
[19]
  glycan array binding signal (z-score): -0.209
[20]
  glycan array binding signal (z-score): -0.278
[21]
  glycan array binding signal (z-score): -0.298
[22]
  glycan array binding signal (z-score): -0.02
[23]
  glycan array binding signal (z-score): -0.086
[24]
  glycan array binding signal (z-score): 0.548
Gal(b1-3)GlcNAc6S
  glycan array binding signal (z-score): -0.152
[25]
  glycan array binding signal (z-score): -0.214
[26]
  glycan array binding signal (z-score): -0.032
[27]
  glycan array binding signal (z-score): -0.123
[28]
  glycan array binding signal (z-score): -0.149
[29]
  glycan array binding signal (z-score): -0.245
[30]
  glycan array binding signal (z-score): 0.272
[31]
  glycan array binding signal (z-score): 1.02
[32]
  glycan array binding signal (z-score): 3.63
[33]
  glycan array binding signal (z-score): -0.314
[34]
  glycan array binding signal (z-score): 0.099
Gal(b1-4)Gal
  glycan array binding signal (z-score): -0.271
[35]
  glycan array binding signal (z-score): -0.098
